Reference: PMC12848717, “Discovery of Encrypted Peptides in a Human Matrix Metallopeptidase” (JACS Au, 2025)
Square brackets hold non-standard residues; d marks the D form. Peptide text beside a SMILES is read from it.

Test system: RAW 264.7 murine macrophages
Conditions: 72 h, 100 μM

CC[C@@H](C)[C@@H](NC(=O)[C@@H](CCCNC(=N)N)NC(=O)[C@@H](Cc1ccccc1)NC(=O)[C@H](NC(=O)[C@@H](CC(C)C)NC(=O)[C@@H](Cc1c[nH]cn1)NC(=O)[C@@H](CCCCN)NC(=O)[C@@H](CCCCN)NC(=O)[C@@H](CCCNC(=N)N)NC(=O)[C@@H](Cc1c[nH]c2ccccc12)NC(=O)[C@@H](CCCNC(=N)N)NC(=O)CNC(=O)[C@@H](CC(C)C)NC(=O)[C@@H](CC(C)C)NC(=O)[C@@H](CC(C)C)NC(=O)[C@@H](Cc1ccc(O)cc1)NC(=O)[C@H]1CCCN1)[C@H](C)O)C(=O)N[C@H](CC(C)C)C(=O)N[C@H](CC(N)=O)C(=O)N[C@H](CC(C)C)C(=O)O [D(P)YLL19] (H-[dP][dY][dL][dL][dL]G[dR][dW][dR][dK][dK][dH][dL][dT][dF][dR][dI][dL][dN][dL]-OH; N-terminus and C-terminus assumed)
cell viability: above 70%
